# Test results from PubChem BioAssay AID1671193 (National Center for Advancing Translational Sciences (NCATS), 2021).
# The whole screen tested about 150,000 compounds, of which about 180 (0.12%) were called active. The inconclusive results got no clear call from the source; some entries with a clear call stand among them for comparison. Calls follow the shape of the dose curve; as a rule, active = well fitted cell-killing curve with a large enough effect; inconclusive = small, poorly fitted or top-dose-only effect, or effect the other way; inactive = flat fitted curve, though single readings scatter. A potency beside an inconclusive call is a rough fit, not a confirmed value.
# Assay: GF-AFC viability counterscreen for inhibitors of alpha-synuclein gene (SNCA) expression; also: nearly all actives have a fitted effect of over 30% in size
# Conditions: HEK-293-SNCA-luc viability, GF-AFC fluorescence, 24 h; series mostly up to 57.1 µM
# Outline: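 Cytotoxicity counterscreen: after 24 h compound treatment of genome-edited SNCA-luciferase HEK-293 cells, live-cell protease substrate GF-AFC read by fluorescence after 30 min; activity scaled between DMSO (0%) and medium-only (-100%), curves Hill-fitted.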
# Potency is read from the fitted curve at half-maximal effect; tags tell the direction and shape of the fitted curve.
row,Compound,Potency
1,Cc1ccc(CN2C(=O)c3ccccc3Sc3ccc(C(=O)N4CCC5(CC4)OCCO5)cc32)cc1,"inconclusive: 25.1 µM [cytotoxic, single point]"
2,Nc1nc(N2CC3CCC(C2)N3CC(F)(F)F)c2[nH]cnc2n1,"inconclusive: 44.7 µM [cytotoxic, single point]"
3,CO[C@]12CC[C@@]3(C[C@@H]1[C@](C)(O)C(C)(C)C)[C@@H]1Cc4ccc(O)c5c4[C@@]3(CCN1CC1CC1)[C@H]2O5,"inconclusive: 2.51 µM [rising, full curve, poor fit]"
4,Cc1ccccc1Cn1cccc(C(=O)Nc2nc3ccccc3s2)c1=O,inactive
5,COc1cc2c(cc1Oc1ccccc1)NC(=O)C21CCN(Cc2cccnc2)CC1,inactive
6,O=C(Nc1cccc(F)c1)N1CC[C@@]2(CCCN(C(=O)Oc3ccccc3)C2)C1,"inconclusive: 10 µM [cytotoxic, partial curve, poor fit]"
7,CC(=O)NCCNC(=O)[C@H]1CN2CCC1C[C@@H]2Cn1cc(CSc2ccccc2)nn1 (some centres not stated),inactive
8,COc1ccc(OC)c(S(=O)(=O)NC[C@H]2C[C@@H]3CCN2C[C@@H]3c2cc(-c3ccc(F)cc3)nn2C)c1,"inconclusive: 39.8 µM [cytotoxic, single point]"
9,COc1cc2c(cc1Oc1ccccc1)NC(=O)C21CCN(Cc2cccc(O)c2)CC1,"inconclusive: 39.8 µM [cytotoxic, single point]"
10,COc1ccc(NC(=O)N2CC3(CCN(C(=O)Oc4ccccc4)CC3)C2)cc1,"inconclusive: 39.8 µM [cytotoxic, single point]"
11,CN1C(=O)C(Cc2ccc3ccccc3c2)N=C(c2ccc(O)cc2)c2cc(Cl)ccc21 (configuration not stated),inactive
12,C#C[C@H]1CN2CC[C@H]1C[C@@H]2COC(=O)NCCC,inactive
13,O=C1NC2(CCCN(Cc3ccccn3)C2)COc2ccccc21 (configuration not stated),"inconclusive: 2.82 µM [cytotoxic, full curve, poor fit]"
14,O=C1Nc2ccccc2O[C@H]2C[C@@H]1N(Cc1ccccn1)C2,inactive
15,COc1cc(C)[nH]c(=O)c1CNC(=O)c1c(C)n([C@H](C)C2CCOCC2)c2ccccc12,inactive
16,Cc1ccc2c(c1)C(Cc1nc3ccccc3c(=O)n1-c1ccc(Br)cc1)C(=O)N2 (configuration not stated),"inconclusive: 39.8 µM [cytotoxic, single point]"
17,CN1CCOC[C@H]2CCN(C(=O)c3ccncc3)C[C@H]21,"inconclusive: 3.16 µM [rising, full curve, poor fit]"
18,CCC(CC)c1cc([C@H]2CN3CC[C@H]2C[C@@H]3CNC(=O)c2cccs2)nc(-c2ccncc2)n1,"inconclusive: 39.8 µM [cytotoxic, single point]"
19,CO[C@@H]1[C@H](O)[C@@H](O[C@@H]2C[C@H]3CC[C@@H]4C(CC[C@]5(C)[C@@H](C6=CC(=O)OC6)CC[C@]45O)[C@@]3(C)[C@H](O)C2)O[C@H](C)[C@@H]1O (some centres not stated),"inconclusive: 0.653 µM [cytotoxic, full curve, poor fit]"

row,Compound,Potency
1,COc1cc2c(cc1Oc1ccccc1)NC(=O)C21CCN(C(=O)Cc2ccccc2)CC1,"inconclusive: 31.6 µM [cytotoxic, single point]"
2,Nc1ncccc1CN1C[C@H](c2ccc3c(c2)OCO3)[C@@H]2[C@H]1C1CCN2CC1,inactive
3,COc1cncc(CN2CCC3(CC2)C(=O)Nc2cc(Oc4ccccc4)c(OC)cc23)c1,"inconclusive: 39.8 µM [cytotoxic, single point]"
4,COc1cccc(S(=O)(=O)N2[C@H]3CC[C@@H]2c2cnc(C)nc2C3)c1,inactive
5,CC[C@H]1C[C@@H]2CC[C@@H](O2)[C@@H](C)C(=O)O[C@H](CC)C[C@H]2CC[C@H](O2)[C@H](C)C(=O)O[C@@H](C)C[C@@H]2CC[C@@H](O2)[C@@H](C)C(=O)O[C@H](CC)C[C@H]2CC[C@H](O2)[C@H](C)C(=O)O1,"inconclusive: 0.0063 µM [cytotoxic, full curve]"
6,CC(=O)N1C[C@@H]2C[C@H](C1)c1ccc(NC(=O)COc3ccccc3)c(=O)n1C2,inactive
7,COc1nc2ccccc2cc1CN1CCC2(C1)CN(C)C(=O)O2 (configuration not stated),inactive
8,CCN(CC)CCSc1nc2ccccc2c(=O)n1-c1ccc(Cl)cc1,"inconclusive: 39.8 µM [cytotoxic, single point]"
9,COc1cccc(NC(=O)Cn2cc(C(=O)c3ccccc3)c3ccccc32)c1,"inconclusive: 14.1 µM [cytotoxic, partial curve, poor fit]"
10,Cc1cccc(-c2nc(CN3C(=O)CN=C(c4ccccc4)c4ccccc43)c(C)o2)c1,"inconclusive: 39.8 µM [cytotoxic, single point]"
11,CSc1cccc(NC(=O)NC[C@H]2C[C@@H]3CCN2C[C@@H]3CN(C)c2ccccc2)c1,"inconclusive: 56.2 µM [cytotoxic, single point]"
12,C[C@]12CC[C@H](O)C[C@H]1CC[C@@H]1[C@@H]2[C@H](O)C(=O)[C@]2(C)[C@@H](c3ccc(=O)oc3)CC[C@]12O,"inconclusive: 0.0189 µM [cytotoxic, full curve, poor fit]"
13,COc1ccc(-c2cc([C@H]3CN4CC[C@H]3C[C@@H]4CNC(=O)CSCC(=O)O)nc(C)n2)cc1OC,inactive
14,COc1ccc(-n2cc(C3=CCN(CCN4CCOCC4)CC3)cn2)cc1,inactive
15,Cc1ccc(C(=O)NC[C@H]2C[C@@H]3CCN2C[C@@H]3c2cc(-c3cccs3)nc(C)n2)cc1,"inconclusive: 31.6 µM [cytotoxic, partial curve, poor fit]"
16,COc1cc2c(cc1OCc1ccccc1)NC(=O)C21CCN(Cc2ccccc2)CC1,"inconclusive: 39.8 µM [cytotoxic, partial curve, poor fit]"
17,C=C1C[C@]2(O)[C@@]3(C)CCC(=O)C(C)(C)C3=C(O)C(=O)[C@@]2(C)[C@@H]2C(=O)O[C@@](C)(C(=O)OC)C(=O)[C@@]12C,"inconclusive: 1.16 µM [rising, partial curve]"
18,Cn1c(=O)n(C)c2cc(CNCCc3ccc(F)cc3)ccc21,"inconclusive: 10 µM [cytotoxic, partial curve, poor fit]"
